Data reported in PMC8727043 (Journal of molecular biology, 2020).

Target: His-tagged human proliferating cell nuclear antigen with an N-terminal PKA site (homotrimer) (human, UniProt P12004)
Test: SEC-MALS

Sequence of UniProt P12004 (P12004 whole entry): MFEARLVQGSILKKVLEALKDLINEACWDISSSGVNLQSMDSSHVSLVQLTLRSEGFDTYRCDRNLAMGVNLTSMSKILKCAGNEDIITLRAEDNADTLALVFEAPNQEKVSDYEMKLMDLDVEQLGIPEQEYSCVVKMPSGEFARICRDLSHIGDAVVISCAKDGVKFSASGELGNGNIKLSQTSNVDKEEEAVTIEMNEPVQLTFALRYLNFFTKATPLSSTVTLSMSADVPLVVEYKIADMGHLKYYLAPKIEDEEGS

B1: His-tagged wild type DNA ligase I (Full-size), not labelled (enzyme)
chain: not shown
stoichiometry N: 1 LigI per PCNA trimer
